This is one part of the list. At the low end of the ranking, values are background and their order means little. The protein was read in a cell extract, so binding may be indirect.

This test has as its target T1, HNF4alpha8 (COS-7 nuclear extract) (UniProt P41235-5).
T1 sequence: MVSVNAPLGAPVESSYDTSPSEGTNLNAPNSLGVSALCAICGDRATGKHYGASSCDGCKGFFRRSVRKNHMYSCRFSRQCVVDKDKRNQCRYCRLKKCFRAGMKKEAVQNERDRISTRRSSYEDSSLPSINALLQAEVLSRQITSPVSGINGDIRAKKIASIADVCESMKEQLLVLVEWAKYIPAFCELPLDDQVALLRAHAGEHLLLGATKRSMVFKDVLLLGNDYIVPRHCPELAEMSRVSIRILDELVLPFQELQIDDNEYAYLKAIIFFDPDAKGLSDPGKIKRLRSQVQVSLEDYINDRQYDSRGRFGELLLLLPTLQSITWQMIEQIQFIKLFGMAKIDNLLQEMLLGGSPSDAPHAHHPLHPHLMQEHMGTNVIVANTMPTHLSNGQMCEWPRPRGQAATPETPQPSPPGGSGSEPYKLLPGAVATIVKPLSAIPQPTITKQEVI
Nature of the test: protein-binding microarray. The following applies: COS-7 nuclear extract on double-stranded Agilent 4x180k PBM; binding buffer, salt, pH and temperature not given; high values mean tight binding; double strand, one strand shown; sequences stand for … in …GCCTAGGGAGATTAGAGTATCGGTCGA
As for CAAGATCCTAGTCTTTAGAGTAACCATTCT, the binding signal (log2 normalized intensity) was -0.512. As for GCATCTGTTGCTCAAGGAGGCCCAAAGGAA, the figure is 0.255. In the case of AAAAGATTAAGTTATCCATGGAGTGTGAAA, the binding signal (log2 normalized intensity) turned out to be 0.594. As for ATCAATAAAAGGTCCAGAGTTCACTGCAGG, the figure is 4.13; as for TGAAGGGGGCGGGGGCGAAAGGGAGGGGGC, -1.42; as for TTCAAAGCCAGGACTTTCAGGAATGCACCC, 1.23. As for CAGGATGTTTTCTCTAGCGCTTATCAGATG, the figure is -0.865.

For ACCTGAACTTTGCTCTGTGACACAAAGAAG, the binding signal (log2 normalized intensity) was found to be 3.72. On to AAAAAAAAAAATTACTGACCCTTGCACTGT, for which the binding signal (log2 normalized intensity) turned out to be 5.45. For the sequence CGGGGTCAGGCCGTGGTGTATGATGACGCC, the binding signal (log2 normalized intensity) worked out at 0.449. Then ATTCCTATCGGTCACCATAAAACATTCTAT, with -0.695.

Turning to ACTGCAATAAAGTGGGTTGAAGTTCTCCCT, the binding signal (log2 normalized intensity) was -0.0108. On to AGGTCTACCAGGAATATTGCCCCCTAATGG, for which the binding signal (log2 normalized intensity) was 3.82. As for CCTTTCAAGGGCTTACAACTCTAAGGGGGA, the figure is -1.41; as for TGACCATCCCAAAGCTTTTTGATTGCTTAT, 0.101.

As for AACATGGACTTTGTTGTTTGCCTCTGAAAA, the binding signal (log2 normalized intensity) amounted to 2.8. On to TTGCTCTGCATGGATTAGCCAGCTATGATA, for which the binding signal (log2 normalized intensity) is -1.06. Then CACAAATACTATTCATCCTCCAAAACCCAG, with 0.83; and ACCCAAGGGATGGCATCACCTTTGGTCAGC, with 4.43. As for ATTGACAAAGACCAGTGCTCTTTCTTCTCT, the figure is -1.16; as for TGCCTGTGTGTTCTGCTATTCATTACAGAT, 1.41; as for ATTAATCAAGGCTGCCTGGCAGGGTGGGGT, -1.02. As for TTACTAAAGTTAGAATGTGCTGGATGTTTC, the figure is 0.724. For ATGGGTCTGGGATGTTGGGAGGAGTGGACT, the binding signal (log2 normalized intensity) was 2.82. As for CTTAGGCCTCCCAGAACGTGGCCTTTAATC, the figure is 2.89; as for TAAAGATATGGAACACTTTCAGAGAGATTG, -1.03; as for TAGCGAGGCGGAAGTAAGGCGGAAGTACTG, -1.24. Then CTGTGATCTGGATTTTCAGGTTCCCCAGTG, with 1.94.

Take TGGGCTTTAGGTTTGGTGTTTAATTTTCAA: the binding signal (log2 normalized intensity) is 1.44. In the case of GAGCACATTCCTGCACCATAACCCTCAGCT, the binding signal (log2 normalized intensity) was -1.26. Then GGCGTTGACTGATCCCTCTGGAGGCTCTCT, with -1.12; and GAATAAATACATAAAGTCCAAACCCCTATG, with 2.22; and TCCTTTTGACCACAGTTATCTCCCCAGCTT, with 2.38.

AACTTACGCACATTACTTTGATTGGAAAAA: the binding signal (log2 normalized intensity) is -0.15. With ATGTCACAGGGATTACGATCCTGCCCTTCT, the binding signal (log2 normalized intensity) stood at 2.22.

ACGGTTTCGTGGGGACCCAGGCTTGCAAAG: the binding signal (log2 normalized intensity) is -1.45.

As to CTGGACAGAGATAAGGTAGGCACGTAAATA, the binding signal (log2 normalized intensity) was -1.38. On to ATCTCACACAGTACTTTGTACATGGGAATA, for which the binding signal (log2 normalized intensity) was 1.8. Then GCCGGACCGGCCAAACTGGTTTCTCCGCTC, with -1.49; and GCTTCCCTAGCAACCTCCACATTGCAACAA, with -1.28. For the sequence TACGTGACCTACTTAGTCTCCAGCCCCCAG, the binding signal (log2 normalized intensity) came to 4.08.

As for AAGACTTTATTTGAAGAAATGGTGGACTTT, the binding signal (log2 normalized intensity) is 6.77. ACTTGACAAATGGGGCAGCTGGGGCCCAGG: the binding signal (log2 normalized intensity) was -1.32.

For the sequence GGCATCCCTGCCGTGGCTGGAACTCCTCCG, the binding signal (log2 normalized intensity) is -1.27. For TAGGACTCTAGTGTTCTCTTTGTGCTTTTT, the binding signal (log2 normalized intensity) was found to be 1.72. As for TCTCAGGTGGGCAGAGGCCTGATGGTGAGT, the figure is -0.581. For TAACACCTGCCTTAGAAAGAGGGTGTAAGA, the binding signal (log2 normalized intensity) is -1.22. AGCTTTACTAAAACAGGGAGCAGGCAGATT: the binding signal (log2 normalized intensity) is -1.4. On to TTCAGCCAGATTCTCTCACTGCTCTGGCCA, for which the binding signal (log2 normalized intensity) is -1.42. As for CATGCCCCAGATGCCCAGCAGAGGGAGCCG, the figure is 1.74; as for TTGTTTTTGCTTGGAATGCCCTTATCTCAT, 2.32. As for TAGCTGAGTTGACCTGTGTTGACAGATGAA, the figure is 2.65; as for GGGCTCCCGGACCCTGACTCTGCAGCCGAA, -1.45; as for TGGAGAGCAGATGCTTCCCAGAAAGAATGA, -1.16. For the sequence CCTGCTTCCAGGCTTGTACCTTGACCTTCT, the binding signal (log2 normalized intensity) came out at 7.46. Then AGATCAAAGAGAAAGTAAGTGCACAGCCAG, with -1.11; and ATTCCAGTGTTTCAAAGGAGTGTCTTTCTC, with 1.51. Take CCTCTTTGCGGATAGATATGTTGAAGTGAC: the binding signal (log2 normalized intensity) was 1.64. Then CCCAGACCGCCATAACTCAGCGGGAGGCAA, with -1.15; and TGGCTGGCCATGAGTGAGCACTTAACAAAT, with -1.31. As for CCAACGCCTCCCTCCTTCCGCGGACGTGTT, the figure is 1.28. As for AAGAAACTCGTGGCATTTTTGCCCCTGCCC, the figure is 3.61.

In the case of CTTCATCTGGAGACAAATGCTTTTGAACAC, the binding signal (log2 normalized intensity) worked out at 0.438. As for TACCAGGCAGTCGTGATAGTGACCACCTGG, the figure is 0.129; as for CTATTCTGTAACACAGTTGCACTCACTAGC, -1.31; as for GTCCCTGGCCCCGGGGCGGGGGCGGGCTGG, -0.21. As for TCATCCAAAGACTAATGCATTCCCAGCAAG, the figure is -1.27; as for TATGGATAGGCACATATTGGATCTCTGGTA, 1.23. Then CAAATTGGATGTTGAACCTCTGTCCTTGGC, with 2.97; and AGGGCAAAAGGGCAAAACTGTCACAAGAAA, with 2.11; and TACGCTGGGCAATAAGCATTCTGTTTCCTA, with -0.957. With TGTTGGAGTTCTAAGAGCCTACTGAGAGGA, the binding signal (log2 normalized intensity) was -1.38.

These data come from publication PMC10726135.
